Experimental data from the supplement of paper PMC10126150.
Sequences with one replicate were seen in a single cluster, so their values are uncertain.

system: ATP; assay: switch fluorescence ratio, 500 uM ATP over buffer (Cy3 cluster intensity, sum of 5 cycles each) (fold (ratio)); higher = stronger signal-on switching upon ATP binding; sequences stand for … in TCGTCGGCAGCGTCAGATGTGTATAAGAGACAGTTTTTTTTTTTTTTTTTTTTTTTTT…TC; conditions: aptamer strand: ATP DNA aptamer (quencher-CACCTGGGGGAGTATTGCGGAGGAAGG + anchor), 100 nM annealed; ATP concentration: 500 uM; one replicate
Summary of the method: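 The fluorescence ratio divides summed target-cycle Cy3 intensity by summed buffer-cycle Cy3 intensity for each cluster and is averaged per switch-domain sequence. Cy3-labelled switching-strand clusters on a modified Illumina MiSeq flow-cell were annealed to 100 nM quencher-labelled ATP aptamer, then imaged in selection buffer and again after 15 min with 500 uM ATP at 22 °C. Five such cycles were run, with NaOH stripping and re-annealing between them, and clusters outside 100-1000 RFU were excluded.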
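Note: ATP exposure 15 min at 22 °C before imaging.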

Sequence	switch fluorescence ratio
TTATTAAAAA	0.979
TTATTAAAGT	1
TTATTAAGCG	0.94
TTATTAATTC	0.975
TTATTACCG	1.03
TTATTCCGG	1.11
TTATTCTCCT	1.02
TTATTGTCTG	0.983
TTATTTCCAA	1
TTATTTGACG	0.981
TTCAAACTGG	1.06
TTCAAATTGC	0.937
TTCAACGAAT	0.993
TTCAACGTAT	1.08
TTCAACTTGG	0.955
TTCAAGCCTC	1.08
TTCAAGGCCA	0.997
TTCAATAAGA	1.02
TTCAATCG	0.963
TTCAATGTTG	0.979
TTCAATTGCA	1.04
TTCACCACA	1.02
TTCACCATCA	1.06
TTCACCGTAG	1.17
TTCACGCATT	1.33
TTCACTAGGG	0.968

Sequence	switch fluorescence ratio
TTCACTGCAC	1.69
TTCACTGGA	0.862
TTCACTGTGT	0.989
TTCACTTCTT	0.993
TTCAGAAAAT	0.968
TTCAGACTGG	0.997
TTCAGCCGG	1.11
TTCAGGCAAA	1.01
TTCAGGCTCG	0.999
TTCAGTAGA	0.969
TTCAGTCCAG	0.982
TTCAGTCGCG	0.964
TTCAGTGATA	1.03
TTCATCCAGG	2.21
TTCATCTAGT	1.02
TTCATGAACC	0.986
TTCATGCAAG	1.02
TTCATGCG	0.923
TTCATGTGCC	1.04
TTCATTACCG	0.951
TTCATTATTG	0.94
TTCCACTGGT	1.04
TTCCATAGCA	1.39
TTCCATAGT	0.997
TTCCATGATA	1.03
TTCCATGGGG	0.998

Sequence	switch fluorescence ratio
TTCCCATGCC	1.06
TTCCCCAAT	1.17
TTCCCCGTAG	1.44
TTCCCGGCTT	1.01
TTCCCGTCTC	1.07
TTCCCTGAAT	1.13
TTCCGACCTG	1.03
TTCCGCTGGG	1.5
TTCCGGCTCG	0.956
TTCCGGGCA	1.91
TTCCGGGGAC	1.51
TTCCGGTAT	1.73
TTCCGTCCGA	1.34
TTCCGTCGCA	4.63
TTCCTCTTA	1.01
TTCCTGCCGT	1.07
TTCCTGGCCG	0.835
TTCCTGTAAA	1.03
TTCCTGTTCA	1.04
TTCCTTGATG	1.04
TTCCTTGCGA	2.63
TTCGAAAAGT	0.973
TTCGACCCCA	1.07
TTCGACTTTA	0.993
TTCGAGAATA	1
TTCGAGGCGC	1.11

Sequence	switch fluorescence ratio
TTCGATAAAA	0.999
TTCGATGTGT	1.03
TTCGATTGCC	0.954
TTCGCAGATA	1.59
TTCGCCAGT	0.976
TTCGCCGAGA	0.992
TTCGCGCTGG	0.979
TTCGCGGAGT	0.981
TTCGCGTATC	1.06
TTCGCTGTGG	0.991
TTCGGAAAT	0.971
TTCGGACATG	0.982
TTCGGAGCCC	2.27
TTCGGCAAGA	1.46
TTCGGCGACA	1.01
TTCGGCGAGC	1.05
TTCGGCTACT	1.06
TTCGGGACAA	0.984
TTCGGGATGT	1.01
TTCGGGTAGG	1.01
TTCGGTATGG	0.981
TTCGGTGCCT	1.3
TTCGTAGGAA	1.1
TTCGTCCGGG	0.973
TTCGTGAGTT	0.98
TTCGTGCGA	1.29

Sequence	switch fluorescence ratio
TTCGTGCGTA	1.01
TTCGTGTTTC	0.996
TTCGTTACGT	0.993
TTCGTTCTAA	0.973
TTCGTTGCAT	0.999
TTCTAACTGT	0.984
TTCTAGCAC	1.1
TTCTAGCACT	1.1
TTCTAGCGAC	1.16
TTCTATCCGG	0.959
TTCTCCTTGG	1.43
TTCTCGAACA	1.05
TTCTCGCGCG	0.981
TTCTCGCTTA	0.972
TTCTCGCTTT	0.987
TTCTGACCCG	1.05
TTCTGATAC	1.07
TTCTGATAGG	0.961
TTCTGCTGA	1.02
TTCTGGATTG	0.976
TTCTTATTGG	0.981
TTCTTGCCTT	1
TTCTTTAAGA	0.979
TTCTTTCTAT	1.2
TTCTTTGCTG	0.974
TTCTTTGTAA	1.04

Sequence	switch fluorescence ratio
TTGAAAGATA	1
TTGAAAGCCC	1.02
TTGAACGCTC	1.85
TTGAACGCTT	0.993
TTGAAGGTAT	1.14
TTGAAGTAAT	1.31
TTGAATACAA	1.01
TTGAATCGCT	0.993
TTGAATGGAC	1.05
TTGACAAAAG	1.07
TTGACAGGAG	0.994
TTGACCTAAC	1.36
TTGACTACAA	1.03
TTGACTGCGC	1.13
TTGAGAAGCA	0.992
TTGAGAAGGT	0.998
TTGAGACATG	1.02
TTGAGAGTCA	0.964
TTGAGATAGC	1.01
TTGAGCCCAA	1.03
TTGAGGCTGT	0.979
TTGAGGGCAA	1.38
TTGAGTCGTA	0.958
TTGAGTCTTC	1.03
TTGATAATGA	0.972
TTGATACGAT	1.07

Sequence	switch fluorescence ratio
TTGATCAATG	0.985
TTGATGAACG	1.08
TTGATGGCGG	1.03
TTGATGTCG	1.14
TTGATTAAAA	0.966
TTGATTACGG	1
TTGATTACGT	0.98
TTGATTCCTG	1.02
TTGATTTAGT	0.969
TTGCAAAAAA	1.05
TTGCACACCG	1.07
TTGCAGTCGG	0.998
TTGCATCCAT	0.976
TTGCATGGCT	1.07
TTGCCAGC	1.07
TTGCCCGATG	1
TTGCCCTAGG	1.12
TTGCCTTAGC	0.997
TTGCGACTGT	0.995
TTGCGCAAAT	1.59
TTGCGCCCTA	1.02
TTGCGGGGTC	1.06
TTGCTACCGA	1.06
TTGCTAGACA	1
TTGCTCCGTT	1.68
TTGCTCCTTG	1.04

Sequence	switch fluorescence ratio
TTGCTGAATA	1.02
TTGCTTTTAG	0.953
TTGGAAAAGC	0.991
TTGGACAGAT	1.03
TTGGACCCGG	1.08
TTGGACTTAT	1.01
TTGGACTTTA	0.974
TTGGAGTCGG	0.983
TTGGATACA	1.02
TTGGATATCA	1.04
TTGGCCAATG	1.02
TTGGCCCTCG	0.999
TTGGCCGTAT	1.19
TTGGCCTCAT	0.968
TTGGCGATAT	1.63
TTGGCGTTGC	1.01
TTGGGAAGCC	1.03
TTGGGATGT	0.989
TTGGGCAAAT	1.01
